The target of this experiment is human cMET (MET, c-Met, HGF receptor) on cells (human) (UniProt P08581). Briefly: flow cytometry (FACS) binding to EBC-1 cells expressing human cMET; apparent Kd printed beside the legend. (In flow cytometry, cells or beads pass a laser one at a time.)
UniProt P08581, sequence (P08581 25-1390): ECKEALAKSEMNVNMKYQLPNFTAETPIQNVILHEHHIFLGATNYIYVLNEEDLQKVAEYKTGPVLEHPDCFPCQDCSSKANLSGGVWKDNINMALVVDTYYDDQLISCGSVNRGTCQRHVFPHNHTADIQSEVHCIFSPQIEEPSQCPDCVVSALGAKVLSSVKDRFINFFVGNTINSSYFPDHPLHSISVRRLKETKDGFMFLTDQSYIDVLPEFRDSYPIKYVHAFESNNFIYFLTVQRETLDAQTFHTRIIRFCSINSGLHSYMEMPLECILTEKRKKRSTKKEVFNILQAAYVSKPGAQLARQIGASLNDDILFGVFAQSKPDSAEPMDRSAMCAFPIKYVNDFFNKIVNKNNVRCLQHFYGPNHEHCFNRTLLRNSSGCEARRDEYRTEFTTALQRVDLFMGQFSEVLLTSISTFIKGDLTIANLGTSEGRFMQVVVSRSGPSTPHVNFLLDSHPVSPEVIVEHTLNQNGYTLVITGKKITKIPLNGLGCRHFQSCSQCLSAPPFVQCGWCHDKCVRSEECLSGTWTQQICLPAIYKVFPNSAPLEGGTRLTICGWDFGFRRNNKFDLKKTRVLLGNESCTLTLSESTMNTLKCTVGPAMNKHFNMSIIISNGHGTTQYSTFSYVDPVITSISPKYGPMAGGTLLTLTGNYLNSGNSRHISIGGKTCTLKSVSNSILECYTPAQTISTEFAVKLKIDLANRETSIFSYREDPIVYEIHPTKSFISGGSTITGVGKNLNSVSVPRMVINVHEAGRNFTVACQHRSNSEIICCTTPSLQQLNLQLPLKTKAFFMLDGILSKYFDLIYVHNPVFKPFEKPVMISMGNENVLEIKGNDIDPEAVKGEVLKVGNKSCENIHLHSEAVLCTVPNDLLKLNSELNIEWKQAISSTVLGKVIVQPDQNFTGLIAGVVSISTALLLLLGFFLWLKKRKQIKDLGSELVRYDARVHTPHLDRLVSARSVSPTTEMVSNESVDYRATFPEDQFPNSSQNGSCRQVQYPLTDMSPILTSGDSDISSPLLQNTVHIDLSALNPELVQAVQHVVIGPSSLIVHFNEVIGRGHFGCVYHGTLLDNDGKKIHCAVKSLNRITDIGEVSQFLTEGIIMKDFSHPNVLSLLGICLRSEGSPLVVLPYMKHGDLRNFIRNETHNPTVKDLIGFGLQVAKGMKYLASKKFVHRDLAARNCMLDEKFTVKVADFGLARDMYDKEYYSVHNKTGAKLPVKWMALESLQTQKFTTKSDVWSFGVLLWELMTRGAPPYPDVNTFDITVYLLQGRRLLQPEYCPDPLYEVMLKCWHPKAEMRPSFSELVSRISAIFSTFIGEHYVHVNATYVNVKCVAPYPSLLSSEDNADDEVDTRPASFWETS

B1: hucMet27Gv1.3-sSPDB-DM4 (antibody, human IgG1, kappa)
light chain: EIVLTQSPATLSLSPGERATLSCRASESVDSYGNSFIHWYQQKPGQAPRLLIYRASNLESGIPARFSGSGSGTDFTLTISSLEPEDFAVYYCQQSNEEPLTFGQGTKVELKRTVAAPSVFIFPPSDEQLKSGTASVVCLLNNFYPREAKVQWKVDNALQSGNSQESVTEQDSKDSTYSLSSTLTLSKADYEKHKVYACEVTHQGLSSPVTKSFNRGEC
heavy chain: EVQLVESGGGLVQPGGSLRLSCAASGFTFSSYDMSWVRQAPGKGLEWVATINSNGVSIYYPDSVKGRFTISRDNAKNSLYLQMNSLRAEDTAVYYCAREEITTEMDYWGQGTLVTVSS[… human IgG1 constant region …]
modifications: lysines linked to sSPDB-DM4, on average 3-4 DM4 per antibody
As for B1, the Kd was found to be 0.44 nM.

B2: hucMet27Gv1.3Hinge28-sSPDB-DM4 (antibody)
light chain: B1 light chain
heavy chain: EVQLVESGGGLVQPGGSLRLSCAASGFTFSSYDMSWVRQAPGKGLEWVATINSNGVSIYYPDSVKGRFTISRDNAKNSLYLQMNSLRAEDTAVYYCAREEITTEMDYWGQGTLVTVSSASTKGPSVFPLAPSSKSTSGGTAALGCLVKDYFPEPVTVSWNSGALTSGVHTFPAVLQSSGLYSLSSVVTVPSSSLGTQTYICNVNHKPSNTKVDKRVEPKSCDCH[… human IgG1 Fc …]
modifications: sSPDB-DM4 conjugate; preparation of this one not described
Consider B2, for which the Kd was found to be 0.45 nM.

The values are drawn from US20180230218A1.
